Data on three compounds can be found in patent US11542275B2, “Substituted imidazolidin-2-one derivatives as PRMT5 inhibitors” (Aurigene Discovery Technologies Limited, priority 2018, dated 2023).

The target of the assay is PRMT5/MEP50 Complex (Homo sapiens (Human), UniProt O14744). Kind of assay: PRMT5 inhibition based on TR-FRET assay. The format is biochemical. Particulars: 32 nM PRMT5:MEP50 complex, 50 nM Histone-H4 peptide, 1 μM SAM, 90 minutes at room temperature. The source says:
Protein arginine methyltransferase 5 (PRMT5) is a type II arginine methyltransferase that catalyze mono- and symmetric demethylation on arginine residues of histone or non-histone proteins in presence of S-adenosylmethionine (AdoMet or SAM) a cofactor responsible for donating the methyl group. PRMT5 is reported to be overexpressed in several human cancers. To identify compounds that inhibit the PRMT5 and decrease its activity, a TR-FRET based assay has been established. Time-resolved fluorescence resonance energy transfer (TR-FRET) HTS assays are homogeneous proximity assays where the interaction of two dye-labeled binding partners is detected by the energy transfer between a donor and an acceptor dye, and the subsequent light emission by the acceptor dye. PRMT5 catalyzes Histone H4 peptide which is biotin tagged to the Lysine amino acid at carboxyl end, in presence of S-adenosyl-1-methionine (SAM) to methylate the peptide. The antibody specific to mono methylated H4 peptide (H4R3) with Ig conjugate binds to the methylated peptide, indirectly binding to the Europium lanthanide. SureLight Allophycocyanin-Streptavidin binds to the biotin tag of the peptide, therefore accepting the energy transferred from the Europium lanthanide. This energy transfer between Europium to SureLight Allophycocyanin is a direct measure of the activity/inhibition of the PRMT5 enzyme.
Assay buffer: 20 mM BICINE (pH 7.6), 25 mM NaCl, 2 mM DTT, 0.01% Tween-20 and 0.01% BSA.
The compound dilutions were prepared as 7.5% DMSO stock solutions in assay buffer. To 2 μL (7.5×) of test compound, 5 μL of PRMT5 enzyme prepared in assay buffer (Final concentration of 32 nM in 15 μL reaction volume) was added and allowed for 30 minutes pre-incubation time in a white polystyrene 384-well plate at room temperature. […] The plates were then read on Victor-3 with Excitation at 340 nm and Emissions collected at 615 and 665 nm in TR-FRET protocol. […]
For orientation: In TR-FRET formats the signal depends on donor and acceptor labels being close together.

What is called IC50 is the concentration that gives 50% inhibition. Higher therefore signals weaker potency in that assay.

The compound `CC(=O)N1C2CCC1CC(c1ccc(CN3CCN(C[C@H](O)CN4CCc5ccccc5C4)C3=O)nc1)C2` (stereo partly drawn) [Compound 72, 1-((5-(8-acetyl-8-azabicyclo[3.2.1]octan-3-yl)pyridin-2-yl)methyl)-3-((R)-3-(3,4-dihydroisoquinolin-2(1H)-yl)-2-hydroxypropyl)imidazolidin-2-one] registered an IC50 of 19 nM. This counts as double-digit nanomolar. In the case of `CC(=O)N1C2CCC1CC(c1ccc(CN3CCN(C[C@H](O)CN4CCc5ccccc5C4)C3=O)cn1)C2` (stereo partly drawn) [Compound 73, 1-((6-(8-acetyl-8-azabicyclo[3.2.1]octan-3-yl)pyridin-3-yl)methyl)-3-((R)-3-(3,4-dihydroisoquinolin-2(1H)-yl)-2-hydroxypropyl)imidazolidin-2-one] it was 39 nM. In the case of `O=C1N(Cc2ccc(N3C4CCC3COC4)cn2)CCN1CC(O)CNC1Cc2ccccc2C1` (stereo not drawn) [Compound 86, 1-((5-(3-oxa-8-azabicyclo[3.2.1]octan-8-yl)pyridin-2-yl)methyl)-3-(3-((2,3-dihydro-1H-inden-2-yl)amino)-2-hydroxypropyl)imidazolidin-2-one] it was 61 nM.
